{"source": "PubChem BioAssay AID686978", "about": "(National Center for Advancing Translational Sciences (NCATS), 2013)", "note": "Screen size: about 420,000 compounds; about 64,000 (15%) were called active. The shares of active, inactive and inconclusive entries below differ from those in the screen. Calls come from the whole dose curve; as a rule, active = well fitted inhibition curve with a large enough effect; inconclusive = small, poorly fitted or top-dose-only effect; inactive = flat fitted curve, though single readings scatter. No potency is given beside an inconclusive call; the fits are too rough. % is set by controls: 0 for no effect and ±100 for the full control effect; potency is the fitted concentration of half-maximal effect; tags give direction and shape of the fitted curve.", "data": [{"experiment": "qHTS for Inhibitors of human tyrosyl-DNA phosphodiesterase 1 (TDP1): qHTS in cells in absence of CPT; note: nearly all actives have a fitted effect of over 55% in size", "conditions": "DT40 Tdp1-/- hTDP1 cells, no CPT, ATP luminescence, 48 h; activity change, negative = growth inhibition: at 46.2 µM (top of the series)", "outline": "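Compound effects on proliferation are scored in DT40 Tdp1-/-;hTDP1 cells in the absence of CPT. ATP levels (CellTiter-Glo luminescence) are recorded after a ≥48 hr, 37 °C incubation.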", "values": [{"compound": "O=C(COc1ccc2c(c1)CCC2)NCc1ccc(Cl)cc1", "Potency": "inactive"}, {"compound": "COc1ccc(C)cc1NC(=O)C1CC1c1ccccc1", "note": "(configuration not stated)", "Potency": "inactive"}, {"compound": "O=C(NCc1ccc2c(c1)OCO2)c1ccc2c(c1)OCO2", "Potency": "inactive"}, {"compound": "Cc1ccc(S(=O)(=O)N2c3ccc(S(N)(=O)=O)cc3CC2C)cc1", "note": "(configuration not stated)", "Potency": "inconclusive [inhibitor, single point]"}, {"compound": "CCc1noc(C)c1C(=O)Nc1ccc(-c2nnc3n2CCCCC3)cc1", "Potency": "inactive"}, {"compound": "O=[N+]([O-])c1cc([N+](=O)[O-])c2cc3ccccc3nc2c1", "Potency": "active: 0.517 µM"}, {"compound": "COc1ccc(NC(=O)C(Sc2ccccc2)c2ccccc2)c(OC)c1", "note": "(configuration not stated)", "Potency": "inconclusive [inhibitor, partial curve]"}, {"compound": "CCOc1ccc(C(C)=O)cc1COc1ccc(-c2nnco2)cc1", "Potency": "inactive"}, {"compound": "CCCn1c(=N)c(C(=O)NC(C)c2ccccc2)cc2c(=O)n3ccccc3nc21", "note": "(configuration not stated)", "Potency": "inconclusive [inhibitor, single point]"}, {"compound": "COCCNC(=O)c1ccccc1N(Cc1ccccc1)S(=O)(=O)c1ccccc1", "Potency": "inconclusive [inhibitor, single point]"}, {"compound": "CCCC(=O)Nc1ccc(-c2csc(NNC(C)=O)n2)cc1", "Potency": "inactive"}, {"compound": "Cc1ccc2scc(N3CCCC(C)C3)c(=O)c2c1", "note": "(configuration not stated)", "Potency": "inactive"}, {"compound": "O=[N+]([O-])c1ccc(-c2cn(-c3ccc(Cl)cc3)cn2)cc1", "Potency": "inconclusive [inhibitor, single point]"}, {"compound": "COc1ccc(-n2c(C)cc(C(=O)COC(=O)c3cc(NC(=O)c4cccs4)c(OC)c(OC)c3)c2C)cc1", "Potency": "inconclusive [inhibitor, single point]"}, {"compound": "CC1CCN(Cc2c(C(=O)N/N=C/c3ccc(C(C)C)cc3)nnn2-c2nonc2N)CC1", "Potency": "inconclusive [inhibitor, single point]"}, {"compound": "CCn1cc(/C=C2\\SC(=O)N(CC(=O)Nc3ccc4c(c3)OCO4)C2=O)c2ccccc21", "Potency": "inconclusive [inhibitor, partial curve, poor fit]"}, {"compound": "COc1ccc(C(=O)c2ccccc2)cc1Br", "Potency": "inactive"}, {"compound": "CCOc1ccc(S(=O)(=O)Nc2cc3c(C(=O)OCc4ccccc4)c(C)oc3c3ccccc23)cc1", "Potency": "active: 29.1 µM"}, {"compound": "O=C(CCSc1nc(-c2ccc3c(c2)OCO3)cc(C(F)(F)F)n1)NCc1ccccc1", "Potency": "active: 14.6 µM"}, {"compound": "Cc1nccn1C[C@@H]1CCc2c(c3ccccc3n2C)C1=O", "Potency": "inconclusive [inhibitor, single point]"}, {"compound": "CCC1CCCCN1CCCNC(=O)c1csc2c1CCCCC2", "note": "(configuration not stated)", "Potency": "inconclusive [inhibitor, single point]"}, {"compound": "Cc1c(Cl)cccc1-n1ncc(C(=O)NC2CCCC2)c1C1CCN(C(=O)OC(C)(C)C)CC1", "Potency": "active: 20.6 µM"}, {"compound": "N#CCCn1c(=O)c(-c2cccs2)nc2cnc(Oc3ccccc3)nc21", "Potency": "inconclusive [inhibitor, single point]"}, {"compound": "Cc1ccc(C(C)C)c(OCC(=O)Nc2cccc(S(=O)(=O)NC3=NCCCCC3)c2)c1", "Potency": "inconclusive [inhibitor, single point]"}, {"compound": "CCCCNc1ccc2nsnc2c1[N+](=O)[O-]", "activity change, negative = growth inhibition": "inconclusive: -30.9% [inhibitor]"}, {"compound": "Cc1ccn2cc(-c3cccc(S(=O)(=O)N4CC(C)OC(C)C4)c3)nc2c1", "note": "(configuration not stated)", "Potency": "inconclusive [inhibitor, partial curve]"}, {"compound": "CC(=O)Cc1nsc(Nc2ccc(F)cc2)n1", "Potency": "inconclusive [inhibitor, single point]"}, {"compound": "COc1ccccc1/C=C/C=N/NC(=O)Cc1cccs1", "Potency": "inconclusive [inhibitor, single point]"}, {"compound": "OC(c1cccc(Cl)c1)c1ncc(-c2ccc3ccccc3c2)[nH]1", "note": "(configuration not stated)", "Potency": "inconclusive [inhibitor, single point]"}, {"compound": "COc1ccc2c(c1OC)C(=O)OC2Nc1nc(-c2ccc([N+](=O)[O-])cc2)cs1", "note": "(configuration not stated)", "Potency": "inconclusive [inhibitor, single point]"}, {"compound": "CN1N=C(C(=O)N2CCOc3ccc(CN4CCCC(C(=O)c5cccnc5)C4)cc3C2)CCC1=O", "note": "(configuration not stated)", "Potency": "inconclusive [inhibitor, partial curve, poor fit]"}, {"compound": "O=C1N(Cc2ccccc2)c2ccccc2OC1(F)F", "Potency": "inactive"}, {"compound": "CC(C)(C)NC(=O)NC(=O)CN1CCN(Cc2ccccc2)CC1", "Potency": "inconclusive [inhibitor, single point]"}, {"compound": "C/C(=N\\NC(N)=S)c1cccnc1", "Potency": "inactive"}, {"compound": "Cc1ccc(S(=O)(=O)Nc2ccc(O)c(Sc3ncn[nH]3)c2)cc1", "Potency": "inactive"}, {"compound": "CCCC(C)c1nnc(NC(=O)CCS(=O)(=O)Cc2ccccc2)s1", "note": "(configuration not stated)", "Potency": "inconclusive [inhibitor, single point]"}, {"compound": "CC(=O)c1c(C)n(-c2cccc(Cl)c2)c2ccc(OC(=O)c3ccccc3)cc12", "Potency": "active: 29.1 µM"}, {"compound": "O=Cc1cc2ccccc2nc1SCc1ccc(Cl)cc1", "Potency": "active: 1.03 µM"}, {"compound": "CCc1sc(C(=O)N2CCc3ccccc32)cc1C", "activity change, negative = growth inhibition": "inconclusive: -30.8% [inhibitor]"}, {"compound": "Cc1cc(C)c(-c2n[nH]c3c2C(c2ccccc2F)N(CCO)C3=O)c(O)c1", "note": "(configuration not stated)", "Potency": "inconclusive [inhibitor, single point]"}, {"compound": "CCCOC(=O)c1c(-c2ccccc2)c(-c2ccccc2)nn(C)c1=O", "Potency": "active: 14.6 µM"}, {"compound": "COc1ccc(N2CCN(C(=O)CC(C)S(=O)(=O)c3ccc4c(c3)NC(=O)CO4)CC2)cc1", "note": "(configuration not stated)", "Potency": "active: 13 µM"}, {"compound": "COc1ccccc1C(=O)OCc1cc(=O)n2c(C)csc2n1", "Potency": "inactive"}, {"compound": "C=CCN(CC=C)S(=O)(=O)c1ccc(NC(=S)NC(=O)C2CC2)cc1", "Potency": "active: 13 µM"}, {"compound": "COc1ccc(Oc2ncc3nc(-c4ccc(Cl)cc4)c(=O)n(C[C@H]4CCCO4)c3n2)cc1", "Potency": "inconclusive [inhibitor, single point]"}, {"compound": "Cc1ccc(S(=O)(=O)N2CCCC2C(=O)Nc2nc3c(s2)CCCC3)cc1", "note": "(configuration not stated)", "Potency": "active: 23.1 µM"}, {"compound": "Cc1cc(NC(=O)CCS(=O)(=O)c2ccc3c(c2)NC(=O)C(C)S3)ccc1Br", "note": "(configuration not stated)", "Potency": "inconclusive [inhibitor, single point]"}, {"compound": "O=C(NCCc1ccc(C(F)(F)F)cc1)C1CC(=O)N(c2ccc3c(c2)OCCO3)C1", "note": "(configuration not stated)", "Potency": "active: 20.6 µM"}, {"compound": "COc1ccc(-c2csc(NC(=S)NC(=O)c3ccco3)n2)cc1", "Potency": "inactive"}, {"compound": "Cc1ccc(-n2nnnc2SCC(=O)NCCC2=CCCCC2)c(C)c1", "Potency": "inconclusive [inhibitor, single point]"}, {"compound": "COc1cccc(C(NC(C)=O)c2nc(-c3cc4ccccc4o3)cs2)c1", "note": "(configuration not stated)", "Potency": "inconclusive [inhibitor, single point]"}, {"compound": "COc1ccccc1CNCC(O)Cn1c2ccccc2c2ccccc21", "note": "(configuration not stated)", "Potency": "inconclusive [inhibitor, single point]"}, {"compound": "CC1=NS(=O)(=O)c2cc(Cl)ccc2N1", "Potency": "inconclusive [inhibitor, single point]"}, {"compound": "CC(C)c1cc(=O)[nH]c(N2CCN(Cc3ccc4c(c3)OCO4)CC2)n1", "activity change, negative = growth inhibition": "inconclusive: -33% [inhibitor]"}, {"compound": "COc1cccc(NC(=O)CSc2nc(=O)[nH]c3c2CCCC3)c1", "Potency": "inconclusive [inhibitor, single point]"}, {"compound": "COC(=O)c1cc(OC)c(OC)cc1NCC(=O)Nc1cccc(C(F)(F)F)c1", "Potency": "inconclusive [inhibitor, single point]"}, {"compound": "COc1ccc(-c2[nH]c(-c3ccc(C)cc3)nc2SCC(=O)NCC2CCCO2)cc1", "note": "(configuration not stated)", "Potency": "inconclusive [inhibitor, single point]"}, {"compound": "COc1ccc(NC(=O)Nc2cn(CC(C)C)c(=O)c3ccccc23)c(OC)c1", "Potency": "inconclusive [inhibitor, single point]"}, {"compound": "CCCc1cc(=O)n2[nH]c(-c3ccc(Cl)cc3)cc2n1", "Potency": "inconclusive [inhibitor, full curve, poor fit]"}, {"compound": "O=C1C2=C(Nc3ccccc3SC2c2c(F)cccc2Cl)c2ccccc21", "note": "(configuration not stated)", "Potency": "inconclusive [inhibitor, single point]"}, {"compound": "COc1ccc(C2c3[nH]c4ccccc4c3C[C@H]3C(=O)N(C4CCN(Cc5ccccc5)CC4)CC(=O)N23)cc1OC", "note": "(some centres not stated)", "Potency": "inconclusive [inhibitor, single point]"}, {"compound": "Cc1[nH]c2ccccc2c1/C=N/NC(=O)c1cc(C(C)C)[nH]n1", "Potency": "inconclusive [inhibitor, single point]"}, {"compound": "O=C(Nc1cccc(Cl)c1)Nc1sccc1-c1nc2ccccc2s1", "Potency": "inconclusive [inhibitor, single point]"}, {"compound": "Cc1cccc(-n2cc(CNCCN3CCOC3=O)c(-c3cccc(F)c3)n2)c1", "Potency": "active: 20.6 µM"}, {"compound": "CS(=O)(=O)N1CCC(C(=O)Nc2ccc(F)c(Cl)c2)CC1", "Potency": "inconclusive [inhibitor, single point]"}, {"compound": "CCc1sc(C(=O)Nc2cc(Cl)ccc2N2CCCCC2)cc1C", "Potency": "inconclusive [inhibitor, single point]"}, {"compound": "COc1cccc(N/C(SC)=C(/C#N)C(N)=O)c1", "Potency": "inactive"}, {"compound": "COc1ccc(-c2cc(-c3ccccc3)nc3c2COc2ccc(Cl)cc2-3)cc1", "Potency": "inactive"}, {"compound": "CCn1c(CNC(=O)c2ccccc2F)nnc1SCCOc1ccccc1", "Potency": "inactive"}, {"compound": "Cc1cc(F)ccc1S(=O)(=O)Nc1ccccc1C(=O)Nc1ccccc1-c1nc2ccccc2[nH]1", "Potency": "active: 7.31 µM"}, {"compound": "CCCCn1nc(C(=O)NC2CCCCCC2)c2ccccc2c1=O", "Potency": "active: 13 µM"}, {"compound": "O=C(NCCc1ccc(F)cc1)C(=O)NCC(c1cccs1)S(=O)(=O)c1cccs1", "note": "(configuration not stated)", "Potency": "active: 25.9 µM"}]}]}
